These results are taken from article PMC9308218, “FBXL17/spastin axis as a novel therapeutic target of hereditary spastic paraplegia” (Cell & Bioscience, 2022).

The test concerns the target T1, GST-SPAST-M1 (human, UniProt Q9UBP0 1-616).
T1 construct: also called GST-tagged SPAST-M1; GST-tagged SPAST; source: E. coli BL21 (pGEX4T1-GST-SPAST-M1), purified (glutathione sepharose)
T1 sequence (looked up): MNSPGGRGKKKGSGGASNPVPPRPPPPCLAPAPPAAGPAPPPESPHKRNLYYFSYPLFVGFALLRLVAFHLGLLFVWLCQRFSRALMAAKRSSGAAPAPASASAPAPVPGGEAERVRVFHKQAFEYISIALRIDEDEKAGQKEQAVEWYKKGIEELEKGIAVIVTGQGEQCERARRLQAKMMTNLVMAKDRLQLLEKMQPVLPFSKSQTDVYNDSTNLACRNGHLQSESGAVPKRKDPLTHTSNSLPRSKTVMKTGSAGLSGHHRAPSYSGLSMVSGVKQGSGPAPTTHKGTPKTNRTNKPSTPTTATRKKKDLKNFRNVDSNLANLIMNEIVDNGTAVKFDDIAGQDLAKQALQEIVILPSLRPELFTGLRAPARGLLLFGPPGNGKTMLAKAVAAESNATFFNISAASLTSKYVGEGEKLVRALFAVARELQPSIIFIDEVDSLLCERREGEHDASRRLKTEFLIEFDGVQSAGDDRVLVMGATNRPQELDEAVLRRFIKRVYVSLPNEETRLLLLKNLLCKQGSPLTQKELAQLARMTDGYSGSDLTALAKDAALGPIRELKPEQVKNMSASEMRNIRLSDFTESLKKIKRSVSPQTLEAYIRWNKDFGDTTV
Description: pull-down; in vitro binding assay: purified recombinant proteins from E. coli, 0.5 μg each in 200 μl 1 × PBS, 0.1% NP-40, pulled down with glutathione sepharose beads (Fig. 2I). The settings on record: both partners purified.

B1: His-tagged FBXL17-ΔNT1 ([…]a.a.) (domain or fragment)
chain: not shown
notes: F-box and leucine-rich repeat protein 17, human, […] (a supplementary legend prints […]); also called His-FBXL17-ΔNT1; source: E. coli BL21 (pET28a-His-FBXL17-ΔNT1), purified (Ni-NTA)
In the case of B1, the binding result is reported as “binds”.
